Results as given in paper PMC6212790.
This is one part of the list. At the low end of the ranking the order means little.

target: T1, GST-Rok (full length) (UniProt O34857); assay: protein binding microarray; conditions: Rok is a gene silencer of Bacillus subtilis; high values mean tight binding; most listed sequences are background and not binding sites; double strand, one strand shown;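 note: rank score from −0.5 (least bound) to 0.5 (best bound)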
T1 sequence: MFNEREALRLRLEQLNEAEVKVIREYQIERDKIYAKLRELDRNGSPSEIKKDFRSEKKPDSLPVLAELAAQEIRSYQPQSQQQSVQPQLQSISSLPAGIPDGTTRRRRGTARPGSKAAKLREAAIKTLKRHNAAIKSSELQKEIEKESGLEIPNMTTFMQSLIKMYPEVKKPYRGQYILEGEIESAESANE

Sequence	binding signal [E-score]
CAGAGCGG	-0.22
AATTCAAC	0.101
ATGGAATC	0.0396
ACGAACTC	-0.0653
AATGCTTG	0.0753
AGGAGATC	-0.0442
CTTGAGGC	-0.242
AGATCGCC	-0.217
CAAAAGAC	0.0115
GGAGTGCC	-0.363
ATTTTGAA	0.162
GCACCTTA	0.0802
AGAAAGGG	-0.227
GTGTCAGA	-0.329
CGATATAC	0.239
CGCTCCCG	-0.429
CCAGCTCG	-0.12
AGCGTTTG	0.129
GCAATTCC	0.0301
ATTTGGCG	-0.0657
ACACAGGG	-0.156
CGACTCGA	-0.107
GAATATCA	0.18
ACTCGCCG	-0.221
CCAATTCC	0.114

Sequence	binding signal [E-score]
GCATGTGA	-0.0268
GTCCAGGA	-0.143
ACTATACG	0.0122
CTAGGAAG	-0.0907
TCGGAGCA	-0.134
ATCGCTCG	-0.134
ACCTAACG	0.0856
AGATGCTA	0.168
CAACGACC	-0.117
AGCTTCCT	0.0336
AAAACTAA	0.254
CCGCGAGC	-0.199
ACAGCGGC	-0.195
AATCGTGC	-0.118
ACTTCCTG	0.0887
GAACGGTC	-0.186
ACCGACAA	7.41e-05
CGGCTTAG	-0.158
GTCGGTCA	-0.0647
CGCTGACC	-0.125
CTCTGTCA	-0.331
ATGGGCTG	-0.299
CCCCACAG	-0.362
ACACCTCT	0.138
CCGATTAA	0.06

Sequence	binding signal [E-score]
GCACGGAC	-0.272
GAGACCAA	-0.215
GCATAATA	0.246
ATATGTCC	0.0624
GCCTACCC	-0.247
AAGCCCGT	-0.219
AGGGAATC	0.0103
AGTGACGC	-0.0528
GCCTTTAA	-0.178
CTAGCCAA	0.139
AAATGAGT	0.0798
AGTATTCA	0.223
CGCGACAC	-0.185
AGGAACGA	-0.0324
ACACTCCC	-0.189
CTACCACC	0.319
CGTGAAAG	-0.0185
CTGCCGAC	-0.228
CTGATCCA	-0.0343
GACGAAGC	-0.195
AATCGTAT	0.186
ATGGCGCC	-0.23
CCAGCCTC	-0.345
AGTAAGCC	-0.0605
CATCGATC	0.112

Sequence	binding signal [E-score]
TCCCGAAA	-0.0156
CGCAGTCA	-0.164
AGGGTCCA	-0.281
CCCCGAGC	-0.392
AGTAGTAT	0.405
AACAGCGA	-0.132
GCTCCTCC	-0.29
GAAAGACA	-0.0829
TCAGAGGA	-0.18
GTTTGATA	0.199
CATCTTCG	-0.101
ACAATTTA	0.312
CCAGTTCA	-0.0639
GCCTGCCA	-0.218
GTTGATCA	-0.00765
AGCTCCCA	-0.14
GCCTATGA	-0.082
GACACAAC	-0.191
CCCGTGCA	-0.123
CTACTCGA	0.179
TCATTCCA	-0.0989
GGAGCCCC	-0.423
GCGCAAGA	-0.189
CCCTACCA	-0.0569
CACACCAC	-0.0248

Sequence	binding signal [E-score]
CAGGCGGA	-0.216
GTCGGATA	0.0954
ACATTCTG	-0.0723
AATATGTG	0.248
CACGGAAG	-0.018
ATCAAATG	-0.0553
AGGCTACA	-0.00954
AAATCTTC	0.0578
CTCGATCC	-0.00475
GACTTTTA	0.194
CTACTGCC	0.049
CGGGCAGA	-0.214
GTAGAGGA	-0.0583
ACCGAAGA	0.0215
CATAGAGA	0.0892
TCGAATCA	-0.0502
AATCTAGC	0.2
ACATCGTG	0.0127
GCAAGGGA	-0.226
CTAAGCAG	-0.152
GAGGCCTA	-0.0425
TAAATCAA	0.22
GTCGTTAA	0.0409
GCAGCACA	-0.0624
AATGATAC	0.282

Sequence	binding signal [E-score]
ATTTATAG	0.398
GAAGGTGC	-0.256
AAAGATAG	0.105
AGTATTGC	0.121
CGACGGAA	-0.0212
CCCTTCCA	-0.361
CCTACCGC	-0.00889
CCTGAGCC	-0.402
CCTTTATA	0.203
GCGTCCTA	-0.102
CTCTACGC	-0.107
ATCTGTTG	0.0207
CGATCTAC	0.371
GGTGATGA	-0.0632
AGGGGTTC	-0.215
ACAATTGC	0.171
CGTTGACC	-0.0875
CACTCTTA	-0.0607
GAGAATAA	0.0741
AGGAAAAG	-0.291
ACAGCACC	-0.0663
CACCGGGA	-0.422
CCACGTAA	0.0542
ACCTAACT	0.173
AGATTAAC	0.181

Sequence	binding signal [E-score]
CGTGGAGC	-0.191
AAGTATAC	0.251
ACACGCAT	0.234
TGCTGGAA	-0.0855
CATCTCAA	-0.0148
CAAACTTA	0.162
GTCAGGAA	-0.107
AGTAGGCG	-0.0783
TGCACGAA	0.0368
GCAAGCTA	-0.0525
ACCACGAC	0.0231
CCCTCCCA	-0.249
AGGAAAAT	0.215
CATTTAAA	0.14
AAGCATTA	0.156
GATGCCAA	-0.188
GGCCAAGA	-0.00611
GACCGGAC	-0.187
AATTGAAT	0.0729
AAGCCACC	-0.219
GCACGAAC	-0.218
ACGAATTG	0.15
GGCTGCTA	-0.14
CAACAGCC	-0.16
ACGTAGCG	0.103

Sequence	binding signal [E-score]
GTGGTCGA	-0.148
CCTCTAGA	-0.115
GGAATGGA	-0.184
CTCCGATA	-0.0935
TACTAGTA	0.45
ATATGAGC	-0.0205
AACCTATC	0.193
ACACCTAC	0.145
CTGGCGGA	-0.282
ACCACACG	0.19
GGGATGCA	-0.178
CACGGGGC	-0.282
TGAGGCAA	-0.209
CATGACGA	0.0373
TCCAAGGA	0.097
GCCCAAGC	-0.322
CGACTACC	-0.0406
CGCGGAGA	-0.139
CTTCCTAC	0.107
GCTATGTA	0.14
CGCGCGAA	0.0414
GCTGTAGA	0.0153
CGTACTTA	0.264
GATCCCGA	0.0608
AGGATCAC	-0.0581

Sequence	binding signal [E-score]
CTTTAAGC	-0.155
AGTCTAAC	0.0131
GCGTTAGA	-0.0102
GCAATATA	0.281
CAGAGCTC	-0.162
ATACCGTA	0.275
GTCATCTA	0.113
AGACGGAA	-0.257
ACTGCTAG	-0.0701
ACGGTCCC	-0.37
CAACGCAG	-0.0825
CTCATGAG	-0.152
AGAGGATA	0.127
CCGGCCAC	-0.248
AGGCTCCC	-0.396
ACAGGGCG	-0.298
AAATTTAG	0.163
AATGGTTC	-0.113
ACATAAAG	-0.139
